This is an account of results in the supplement of paper PMC3694890.

The test deals with GRB2 (endogenous complexes from cell lysate), P62993. Nature of the test: GRB2 complex binding differential signal (pY peptide minus Ala control peptide) (fluorescence intensity units); higher = stronger GRB2 complex binding.

± gives the uncertainty stated by the source. This is one part of the list. A small y stands for phosphotyrosine.
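Further: phosphopeptide probes on the chip at 1–4 µM, lysate proteins bound in 20 mM Tris pH 7.0 buffer with 140 mM NaCl, 1% Triton X-100 and 5% glycerol.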

B1: ROR2_646/A1 (peptide)
chain: yKLLGN
On to B1, for which the “GRB2 complex binding differential signal” value (MCF7) was 2980 ± 390, the “GRB2 complex binding differential signal” value (MCF10A) is 1480 ± 530, the “GRB2 complex binding differential signal” value (MDA-MB-231) turned out to be 1010 ± 330 and the “GRB2 complex binding differential signal” value (T47D) was determined as 1940 ± 820.

B2: ROS1_2334/A1 (peptide)
chain: yACLTH
With B2, the “GRB2 complex binding differential signal” value (MCF7) stood at 717 ± 250, the “GRB2 complex binding differential signal” value (MCF10A) came to 280 ± 810, the “GRB2 complex binding differential signal” value (MDA-MB-231) is 1120 ± 310 and the “GRB2 complex binding differential signal” value (T47D) was 4770 ± 1600.

B3: BCAR1_267/A1 (peptide)
chain: yDTPPM
Take B3: the “GRB2 complex binding differential signal” value reads like this: (MCF7) 3400 ± 970; (MCF10A) 1910 ± 600; (MDA-MB-231) 2140 ± 490; (T47D) 1670 ± 1100.

B4: ROR1_828/A1 (peptide)
chain: yAAFPA
As to B4, the “GRB2 complex binding differential signal” value is, setting by setting: (MCF7) 2460 ± 1900; (MCF10A) 688 ± 520; (MDA-MB-231) 2210 ± 910; (T47D) 4660 ± 2400.

B5: RIN1_632/A1 (peptide)
chain: yQDPSS
B5: the “GRB2 complex binding differential signal” value was found to be 5800 ± 1700 (MCF7), 3660 ± 600 (MCF10A), 1230 ± 470 (MDA-MB-231) and 1830 ± 980 (T47D).

B6: BCAR1_249/A1 (peptide)
chain: yDVPPV
Consider B6, for which the “GRB2 complex binding differential signal” value was 2730 ± 830 (MCF7), 1260 ± 460 (MCF10A), 1240 ± 480 (MDA-MB-231) and 246 ± 790 (T47D).

B7: ROR1_173/A1 (peptide)
chain: yRGIAC
For the molecule B7, the “GRB2 complex binding differential signal” value runs as follows: (MCF7) 1080 ± 960; (MCF10A) 630 ± 240; (MDA-MB-231) 123 ± 430; (T47D) 72.6 ± 910.

B8: RYK_492/A1 (peptide)
chain: yHCLGD
For B8, the “GRB2 complex binding differential signal” value (MCF7) turned out to be 42.9 ± 300, the “GRB2 complex binding differential signal” value (MCF10A) is 59.9 ± 130, the “GRB2 complex binding differential signal” value (MDA-MB-231) was 473 ± 350 and the “GRB2 complex binding differential signal” value (T47D) was found to be 68.4 ± 960.

B9: SH22A_216/A1 (peptide)
chain: ySPIIK
In the case of B9, the “GRB2 complex binding differential signal” value runs as follows: (MCF7) 3630 ± 560; (MCF10A) 2500 ± 330; (MDA-MB-231) 1760 ± 330; (T47D) 1200 ± 1700.

B10: ROR1_836/A1 (peptide)
chain: yQPTGP
For B10, the “GRB2 complex binding differential signal” value stood at 2060 ± 2400 (MCF7), 2790 ± 340 (MCF10A), 760 ± 350 (MDA-MB-231) and 1410 ± 1000 (T47D).

B11: RET_905/A1 (peptide)
chain: yVKRSQ
Take B11: the “GRB2 complex binding differential signal” value stood at 856 ± 360 (MCF7), 1130 ± 320 (MCF10A), 283 ± 470 (MDA-MB-231) and 665 ± 1200 (T47D).

B12: RET_826/A1 (peptide)
chain: yLGSGG
B12: the “GRB2 complex binding differential signal” value came to 998 ± 300 (MCF7), 606 ± 270 (MCF10A), 270 ± 250 (MDA-MB-231) and 280 ± 1100 (T47D).

B13: RET_806/A1 (peptide)
chain: yAKYGS
Turning to B13, the “GRB2 complex binding differential signal” value (MCF7) was 1480 ± 240, the “GRB2 complex binding differential signal” value (MCF10A) came out at 907 ± 310, the “GRB2 complex binding differential signal” value (MDA-MB-231) worked out at 613 ± 420 and the “GRB2 complex binding differential signal” value (T47D) came to 1400 ± 1400.

B14: ROR1_789/A1 (peptide)
chain: yMFPSQ
Take B14: the “GRB2 complex binding differential signal” value reads like this: (MCF7) 2570 ± 900; (MCF10A) 1220 ± 440; (MDA-MB-231) 1050 ± 660; (T47D) 1320 ± 950.

B15: ROR1_786/A1 (peptide)
chain: yPNYMF
Take B15: the “GRB2 complex binding differential signal” value was 1200 ± 1200 (MCF7), -201 ± 1400 (MCF10A), 769 ± 380 (MDA-MB-231) and 2390 ± 1100 (T47D).

B16: RET_981/A1 (peptide)
chain: yRLMLQ
Take B16: the “GRB2 complex binding differential signal” value came out at 457 ± 360 (MCF7), 264 ± 230 (MCF10A), 387 ± 430 (MDA-MB-231) and 817 ± 1100 (T47D).

B17: RYK_452/A1 (peptide)
chain: yLARRE
For B17, the “GRB2 complex binding differential signal” value amounted to 1040 ± 590 (MCF7), 1570 ± 560 (MCF10A), 638 ± 330 (MDA-MB-231) and 329 ± 850 (T47D).

B18: RYK_556/A1 (peptide)
chain: yRIAQP
As to B18, the “GRB2 complex binding differential signal” value reads like this: (MCF7) 6520 ± 3800; (MCF10A) 5130 ± 1000; (MDA-MB-231) 1390 ± 1400; (T47D) 1070 ± 1000.

B19: RIN1_36/A1 (peptide)
chain: yDVPNA
B19: the “GRB2 complex binding differential signal” value (MCF7) was 4000 ± 900, the “GRB2 complex binding differential signal” value (MCF10A) came out at 978 ± 1300, the “GRB2 complex binding differential signal” value (MDA-MB-231) was 1300 ± 630 and the “GRB2 complex binding differential signal” value (T47D) stood at 1570 ± 1000.

B20: RET_809/A1 (peptide)
chain: yGSLRG
As for B20, the “GRB2 complex binding differential signal” value reads like this: (MCF7) 2980 ± 400; (MCF10A) 912 ± 210; (MDA-MB-231) 503 ± 340; (T47D) 379 ± 1600.

B21: BCAR1_287/A1 (peptide)
chain: yDVPPS
B21: the “GRB2 complex binding differential signal” value is, setting by setting: (MCF7) 2280 ± 390; (MCF10A) 404 ± 580; (MDA-MB-231) 1300 ± 400; (T47D) 843 ± 970.

B22: ROR2_488/A1 (peptide)
chain: yKGHLF
Consider B22, for which the “GRB2 complex binding differential signal” value reads like this: (MCF7) 971 ± 400; (MCF10A) 223 ± 310; (MDA-MB-231) 468 ± 300; (T47D) 379 ± 1100.

B23: RET_900/A1 (peptide)
chain: yEEDSY
On to B23, for which the “GRB2 complex binding differential signal” value reads like this: (MCF7) 37.1 ± 240; (MCF10A) 82.3 ± 250; (MDA-MB-231) 274 ± 390; (T47D) 338 ± 1500.

B24: SH22A_280/A1 (peptide)
chain: yNEPDE
Consider B24, for which the “GRB2 complex binding differential signal” value stood at 1740 ± 990 (MCF7), 1830 ± 410 (MCF10A), 742 ± 420 (MDA-MB-231) and 3.65 ± 960 (T47D).

B25: ROR2_666/A1 (peptide)
chain: yGKFSI
As to B25, the “GRB2 complex binding differential signal” value is, setting by setting: (MCF7) 996 ± 210; (MCF10A) 193 ± 490; (MDA-MB-231) 100 ± 300; (T47D) 582 ± 850.

B26: ROR2_624/A1 (peptide)
chain: yDKLNV
Regarding B26, the “GRB2 complex binding differential signal” value (MCF7) was determined as 1560 ± 270, the “GRB2 complex binding differential signal” value (MCF10A) was 1720 ± 320, the “GRB2 complex binding differential signal” value (MDA-MB-231) came to 465 ± 370 and the “GRB2 complex binding differential signal” value (T47D) is 793 ± 1200.

B27: ROS1_2274/A1 (peptide)
chain: yMVLAT
As to B27, the “GRB2 complex binding differential signal” value is, setting by setting: (MCF7) 655 ± 260; (MCF10A) 472 ± 230; (MDA-MB-231) 927 ± 500; (T47D) 237 ± 790.

B28: ROR2_873/A1 (peptide)
chain: yVTTAP
For B28, the “GRB2 complex binding differential signal” value (MCF7) came out at 4970 ± 1600, the “GRB2 complex binding differential signal” value (MCF10A) came to 5130 ± 830, the “GRB2 complex binding differential signal” value (MDA-MB-231) came out at 1820 ± 450 and the “GRB2 complex binding differential signal” value (T47D) stood at 2310 ± 1300.

B29: ROS1_2114/A1 (peptide)
chain: yYRKRG
In the case of B29, the “GRB2 complex binding differential signal” value stood at 156 ± 180 (MCF7), 48.1 ± 150 (MCF10A), 425 ± 300 (MDA-MB-231) and 97.1 ± 650 (T47D).

B30: ROR1_160/A1 (peptide)
chain: ySDEYE
In the case of B30, the “GRB2 complex binding differential signal” value (MCF7) is -214 ± 430, the “GRB2 complex binding differential signal” value (MCF10A) is 30 ± 130 and the “GRB2 complex binding differential signal” value (MDA-MB-231) stood at 65.5 ± 250.

B31: ROR2_645/A1 (peptide)
chain: yYKLLG
Regarding B31, the “GRB2 complex binding differential signal” value runs as follows: (MCF7) 247 ± 280; (MCF10A) 146 ± 220; (MDA-MB-231) 874 ± 400; (T47D) 877 ± 950.

B32: ROR1_645/A1 (peptide)
chain: yYRVQS
In the case of B32, the “GRB2 complex binding differential signal” value runs as follows: (MCF7) 1630 ± 1200; (MCF10A) 880 ± 290; (MDA-MB-231) 675 ± 440; (T47D) 573 ± 990.

B33: RET_791/A1 (peptide)
chain: yGACSQ
In the case of B33, the “GRB2 complex binding differential signal” value (MCF7) is 234 ± 220, the “GRB2 complex binding differential signal” value (MCF10A) was -57.8 ± 170, the “GRB2 complex binding differential signal” value (MDA-MB-231) was 295 ± 360 and the “GRB2 complex binding differential signal” value (T47D) turned out to be 710 ± 1600.
